{"source": "the RNAGym collection of RNA variant scans (doi:10.1093/nar/gkz1192)", "parents": {"B1": {"name": "CPEB3 Ribozyme (parent)", "chain": "UAACAGGGGGCCACAGCAGAAGCGUUCACGUCGCAGCCCCUGUCAGAUUCUGGUGAAUCUGCGAAUUCUGCUGUAUAUCUC"}}, "note": "Read counts are not given, so values of variants with three or more changes are uncertain."}
{"variants_of": "B1", "assay": "self-cleavage, relative activity (ratio to wild type); higher = more cleavage; in vitro, sequencing", "procedure,_shortened": "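Relative activity was defined as the cleaved/total read fraction for a variant divided by the same fraction for the unmutated ribozyme. CPEB3 self-cleaving ribozyme libraries were made by rounds of error-prone PCR, barcoded, and transcribed in vitro with T7 RNA polymerase for 5 hours at 37°C, and cleavage ran through transcription plus a 15 min DNase I step before EDTA. Illumina sequencing of template-switched reverse transcripts gave the reads, and DNA sequencing mapped the barcodes. Averages come from three batches, using variants with at least 5 reads.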"}
{"variant": "UAACAGGGGGCCACAGCAGAAGCGUCCACGUCGCAGCCCCUGUCAGACUCUGGUGGAUCUACGAAUCCUGCUGUAUAUCUC", "note": "[U26C U48C A56G G61A U67C]", "self-cleavage": 0.06}
{"variant": "UAACAGGGGGCCACAGCAGAAGCGUCCACGUCGCAGCCCCUGUCAGAUUCUGGUGAAUCCGCGAAUUCUGCUGUAUUUCUC", "note": "[U26C U60C A77U]", "self-cleavage": 0.25}
{"variant": "UAACAGGGGGCCACAGCAGAAGCGUCCACGUCGCAGCCCCUGUCAGAUUCUGGUGAAUCCGCGAAUUCUGCUGUAUAUCAC", "note": "[U26C U60C U80A]", "self-cleavage": 0.14}
{"variant": "UAACAGGGGGCCACAGCAGAAGCGUCCACGUCGCAGCCCCUGUCAGAUUCAGGUGAAUCUGCGAAUUCUGCUGUAUAUCUU", "note": "[U26C U51A C81U]", "self-cleavage": 0.46}
{"variant": "UAACAGGGGGCCACAGCAGAAGCGUCCACGUCGCAGCCCCUGUCAGAUUCUGGUGAAUCUGCGAAUGCUGCUGUAUAUCCC", "note": "[U26C U67G U80C]", "self-cleavage": 0.1}
{"variant": "UAACAGGGGGCCACAGCAGAAGCGUCCACGUCGCAGCCCCUGUCAGAUUCUGGCGAAUCUGCGAAUCCUGCUGUAUAUCUC", "note": "[U26C U54C U67C]", "self-cleavage": 0.13}
{"variant": "UAACAGGGGGCCACAGCAGAAGCGUCCACGUCGCAGCCCCUGUCAGAUUCUGGUGAAUCAGCGAAUUCUGCCGUAUAUCAC", "note": "[U26C U60A U72C U80A]", "self-cleavage": 0.29}
{"variant": "UAACAGGGGGCCACAGCAGAAGCGUCCACGUCGCAGCCCCUGCCAAAUUCUGGCGAAUCUGCGAAUUCUGCUGUAUAUCUC", "note": "[U26C U43C G46A U54C]", "self-cleavage": 0.04}
{"variant": "UAACAGGGGGCCACAGCAGAAGCGUCCACGUCGCAGCCCCUGCCAGAUUCUGGUGAAUCUGUGAAUUCCGCUGCAUAUCUC", "note": "[U26C U43C C62U U69C U74C]", "self-cleavage": 0.15}
{"variant": "UAACAGGGGGCCACAGCAGAAGCGUCCACGUCGCAGCCCCUGUCAGAUUCUGGUGAACCCGCGAGUUCUGCUGUAUAUCUC", "note": "[U26C U58C U60C A65G]", "self-cleavage": 0.14}
{"variant": "UAACAGGGGGCCACAGCAGAAGCGUCCACGUCGCAGCCCCUGUCAGAUUCUGGUGAAUCAGCGAAUUCUGCUGUAUCUCUC", "note": "[U26C U60A A77C]", "self-cleavage": 0.46}
{"variant": "UAACAGGGGGCCACAGCAGAAGCGUCCACGUCGCAGCCCCUGUCAGAUCCUGGUAAAUCUGCGAAUUCUGCUGUAUAUCUC", "note": "[U26C U49C G55A]", "self-cleavage": 0.08}
{"variant": "UAACAGGGGGCCACAGCAGAAGCGUCCACGUCGCAGCCCCUGUCAGAUUCUGGUGAAUCAGCGAACUCUGCUGUAUAUCUC", "note": "[U26C U60A U66C]", "self-cleavage": 0.07}
{"variant": "UAACAGGGGGCCACAGCAGAAGCGUCCACGUCGCAGCCCCUGUCAGAUUCCGGUGAAUCUGCGUAUUCUGCUGUAUAUCUC", "note": "[U26C U51C A64U]", "self-cleavage": 0.09}
{"variant": "UAACAGGGGGCCACAGCAGAAGCGUCCACGUCGCAGCCCCUGCCAGAUUCGGGUGAAUCUGCGAAUUCUGCUGUAUAUCUC", "note": "[U26C U43C U51G]", "self-cleavage": 0.88}
{"variant": "UAACAGGGGGCCACAGCAGAAGCGUCCACGUCGCAGCCCCUGUCAGAUUCUGGUGAAGCUGCGAACUCUGCAGUAUAUCUC", "note": "[U26C U58G U66C U72A]", "self-cleavage": 0.11}
{"variant": "UAACAGGGGGCCACAGCAGAAGCGUCCACGUCGCAGCCCCUGUCAGAUCCUGGUGGAUCUGCGAAUACUGCUGUACAUCUC", "note": "[U26C U49C A56G U67A U76C]", "self-cleavage": 0.09}
{"variant": "UAACAGGGGGCCACAGCAGAAGCGUCCACGUCGCAGCCCCUGUCAGAUGCUGGUCAAUCUGCGAAUUCUGCUGUAUAUCUC", "note": "[U26C U49G G55C]", "self-cleavage": 0.18}
{"variant": "UAACAGGGGGCCACAGCAGAAGCGUCCACGUCGCAGCCCCUGUCAGAAUGCGGUGAAUCUGCGGAUUCUGCUGUAUAUCUC", "note": "[U26C U48A C50G U51C A64G]", "self-cleavage": 0.1}
{"variant": "UAACAGGGGGCCACAGCAGAAGCGUCCACGUCGCAGCCCCUGUCAGAUCCUGGUGAAUCUGCGAAUUCUGCUUUACAUCUC", "note": "[U26C U49C G73U U76C]", "self-cleavage": 0.23}
{"variant": "UAACAGGGGGCCACAGCAGAAGCGUCCACGUCGCAGCCCCUGUCAGAUUCCGGUGAAUCUGCGAAUUCUGCUGUAUAUCCC", "note": "[U26C U51C U80C]", "self-cleavage": 0.33}
{"variant": "UAACAGGGGGCCACAGCAGAAGCGUCCACGUCGCAGCCCCUGCCAGAUCCUGGUGAGUCUGCGAAUUCUGCUGUAUAUCUC", "note": "[U26C U43C U49C A57G]", "self-cleavage": 0.08}
{"variant": "UAACAGGGGGCCACAGCAGAAGCGUCCACGUCGCAGCCCCUGUCAGAUCCUGGUAAAUCUGCGAAUUCAGCUGUAUCUCUC", "note": "[U26C U49C G55A U69A A77C]", "self-cleavage": 0.14}
{"variant": "UAACAGGGGGCCACAGCAGAAGCGUCCACGUCGCAGCCCCUGUCAGAUUCUGGCGAAUCUGCGAAUUCAGCUGUAUAUCUC", "note": "[U26C U54C U69A]", "self-cleavage": 0.24}
{"variant": "UAACAGGGGGCCACAGCAGAAGCGUCCACGUCGCAGCCCCUGUCAGAUUCAGGUGAAUCUGCGGAUUCUGCUGUAUAUCUC", "note": "[U26C U51A A64G]", "self-cleavage": 0.35}
{"variant": "UAACAGGGGGCCACAGCAGAAGCGUCCACGUCGCAGCCCCUGUCAGACUCUGGUGAAUCUGCGAAUUCUGCUGUUUAUCCC", "note": "[U26C U48C A75U U80C]", "self-cleavage": 0.15}
{"variant": "UAACAGGGGGCCACAGCAGAAGCGUCCACGUCGCAGCCCCUGUCAGAUACUGGUGAAUCUGCGAAUUCUGCAGUAUAUCUC", "note": "[U26C U49A U72A]", "self-cleavage": 0.17}
{"variant": "UAACAGGGGGCCACAGCAGAAGCGUCCACGUCGCAGCCCCUGCCAGAUCCUGGUGAAUCUGCGAAUUCUGCUGAAUAUCUC", "note": "[U26C U43C U49C U74A]", "self-cleavage": 0.29}
{"variant": "UAACAGGGGGCCACAGCAGAAGCGUCCACGUCGCAGCCCCUGGCAGAUCCUGGUGAAUCUGCGAAUUCUGCUGUAUACCUC", "note": "[U26C U43G U49C U78C]", "self-cleavage": 0.31}
{"variant": "UAACAGGGGGCCACAGCAGAAGCGUCCACGUCGCAGCCCCUGUCAGAUUCUGGUGAACCUGCGAAUUCUGCUGUAUAACUC", "note": "[U26C U58C U78A]", "self-cleavage": 0.26}
{"variant": "UAACAGGGGGCCACAGCAGAAGCGUCCACGUCGCAGCCCCUGUCAGAUCCUGGUGAAACUGCGAAUUCUGCUGUAUAUCUC", "note": "[U26C U49C U58A]", "self-cleavage": 0.16}
{"variant": "UAACAGGGGGCCACAGCAGAAGCGUCCACGUCGCAGCCCCUGUCAGAUUCCGGGGAAUCUGCGAAUCCUGCUGUAUAUCUC", "note": "[U26C U51C U54G U67C]", "self-cleavage": 0.11}
{"variant": "UAACAGGGGGCCACAGCAGAAGCGUCCACGUCGCAGCCCCUGCCAGAUUCUGGUGAAUCCGCGAAUUCUGCCGUAUAUCUC", "note": "[U26C U43C U60C U72C]", "self-cleavage": 0.27}
{"variant": "UAACAGGGGGCCACAGCAGAAGCGUCCACGUCGCAGCCCCUGCCAGAUUCUGGUGAAUCCGCGAAUUCUGCAGUAUAUCUC", "note": "[U26C U43C U60C U72A]", "self-cleavage": 0.13}
